{"source": "PubChem BioAssay AID504333", "about": "(National Center for Advancing Translational Sciences (NCATS), 2011)", "note": "The whole screen tested about 360,000 compounds, of which about 16,000 (4.4%) were called active. Inconclusive results, whose numbers are uncertain, are shown with a selection of clear calls. Calls come from the whole dose curve; as a rule, active = well fitted inhibition curve with a large enough effect; inconclusive = small, poorly fitted or top-dose-only effect; inactive = no such curve, though single readings can be large or run the other way. Potencies of inconclusive entries are doubtful fits and often do not repeat. % is set by controls: 0 for no effect and ±100 for the full control effect; potency is the fitted concentration of half-maximal effect; tags give direction and shape of the fitted curve.", "data": [{"molecular_target": "Bromodomain adjacent to zinc finger domain protein 2B (Homo sapiens) (UniProt Q9UIF8)", "sequence (Q9UIF8 whole entry, looked up, the tested form may be a part)": "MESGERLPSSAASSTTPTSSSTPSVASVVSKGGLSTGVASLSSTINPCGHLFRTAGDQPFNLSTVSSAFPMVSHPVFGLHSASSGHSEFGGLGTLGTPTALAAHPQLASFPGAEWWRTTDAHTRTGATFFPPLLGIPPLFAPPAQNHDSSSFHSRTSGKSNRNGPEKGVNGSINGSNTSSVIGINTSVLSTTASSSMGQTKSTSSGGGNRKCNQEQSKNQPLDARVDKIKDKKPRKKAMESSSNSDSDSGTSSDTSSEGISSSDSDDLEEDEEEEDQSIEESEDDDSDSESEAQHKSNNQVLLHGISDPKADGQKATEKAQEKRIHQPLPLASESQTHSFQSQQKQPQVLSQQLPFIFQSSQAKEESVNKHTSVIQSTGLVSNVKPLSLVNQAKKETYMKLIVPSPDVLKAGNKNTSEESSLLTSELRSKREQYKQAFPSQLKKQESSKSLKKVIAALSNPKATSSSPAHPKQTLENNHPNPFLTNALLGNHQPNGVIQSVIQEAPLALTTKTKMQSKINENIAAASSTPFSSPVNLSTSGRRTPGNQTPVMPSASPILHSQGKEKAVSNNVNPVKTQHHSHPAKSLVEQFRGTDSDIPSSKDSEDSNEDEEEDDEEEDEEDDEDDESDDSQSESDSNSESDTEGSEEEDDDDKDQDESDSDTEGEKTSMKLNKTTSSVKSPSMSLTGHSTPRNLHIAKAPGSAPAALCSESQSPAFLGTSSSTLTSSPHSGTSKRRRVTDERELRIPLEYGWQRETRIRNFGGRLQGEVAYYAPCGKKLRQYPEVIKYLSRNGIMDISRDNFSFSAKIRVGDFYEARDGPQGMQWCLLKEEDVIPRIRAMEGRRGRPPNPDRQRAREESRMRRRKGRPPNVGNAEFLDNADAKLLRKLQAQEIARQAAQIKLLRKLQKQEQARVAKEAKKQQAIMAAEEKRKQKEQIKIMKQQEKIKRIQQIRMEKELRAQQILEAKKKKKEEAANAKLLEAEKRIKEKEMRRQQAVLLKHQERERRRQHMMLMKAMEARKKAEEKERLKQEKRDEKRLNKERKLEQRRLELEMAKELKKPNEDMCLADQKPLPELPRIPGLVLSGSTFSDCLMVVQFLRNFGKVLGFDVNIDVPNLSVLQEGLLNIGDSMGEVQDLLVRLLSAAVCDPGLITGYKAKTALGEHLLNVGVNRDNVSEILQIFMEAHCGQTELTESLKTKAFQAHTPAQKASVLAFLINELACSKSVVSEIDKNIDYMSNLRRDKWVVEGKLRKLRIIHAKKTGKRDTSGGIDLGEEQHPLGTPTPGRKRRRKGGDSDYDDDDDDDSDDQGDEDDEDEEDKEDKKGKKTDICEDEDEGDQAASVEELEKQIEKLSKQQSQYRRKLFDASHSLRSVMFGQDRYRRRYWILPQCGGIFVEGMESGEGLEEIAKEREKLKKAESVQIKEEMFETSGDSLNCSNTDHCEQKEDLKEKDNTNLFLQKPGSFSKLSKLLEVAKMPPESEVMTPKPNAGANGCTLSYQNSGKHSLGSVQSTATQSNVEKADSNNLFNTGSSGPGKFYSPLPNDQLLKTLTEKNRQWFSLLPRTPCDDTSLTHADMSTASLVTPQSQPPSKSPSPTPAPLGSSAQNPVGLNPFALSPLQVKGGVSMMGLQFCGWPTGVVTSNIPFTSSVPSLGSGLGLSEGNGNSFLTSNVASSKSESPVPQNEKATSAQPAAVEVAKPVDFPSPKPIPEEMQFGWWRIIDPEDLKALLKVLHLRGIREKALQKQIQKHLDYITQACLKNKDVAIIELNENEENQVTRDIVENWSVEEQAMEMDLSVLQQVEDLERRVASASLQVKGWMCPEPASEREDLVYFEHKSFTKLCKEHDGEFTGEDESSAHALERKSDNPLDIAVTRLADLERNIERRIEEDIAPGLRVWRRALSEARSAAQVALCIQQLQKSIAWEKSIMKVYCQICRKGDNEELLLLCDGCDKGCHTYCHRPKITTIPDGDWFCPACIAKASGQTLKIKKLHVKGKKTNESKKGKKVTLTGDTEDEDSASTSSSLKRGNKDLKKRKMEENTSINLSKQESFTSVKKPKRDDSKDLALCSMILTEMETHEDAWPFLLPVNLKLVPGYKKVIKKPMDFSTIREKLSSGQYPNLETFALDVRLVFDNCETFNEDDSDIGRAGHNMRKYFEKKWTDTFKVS", "assay": "qHTS Assay for Inhibitors of BAZ2B; note: nearly all actives have a fitted effect of over 60% in size", "conditions": "AlphaScreen BAZ2B-H3K14Ac peptide displacement; activity change, negative = inhibition: at 114 µM (top of the series)", "method_in_brief": "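Inhibition is scored as reduced AlphaScreen emission. The BAZ2B/b-H3(5-23)K14Ac complex (50 nM each) in PBS pH 7.4, 0.01% Tween-20 meets compound (up to 110 uM) for 30 min at RT before bead addition.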", "values": [{"smiles": "COCCNC(=O)CCCn1c(SCC(=O)Nc2cccc(C)c2)nc2c(sc3ccccc32)c1=O", "Potency": "inconclusive: 79.4 µM [inhibitor, single point]"}, {"smiles": "CCc1ccc(CNC(=O)c2nn(C)c3c2CS(=O)(=O)c2ccccc2-3)cc1", "Potency": "inconclusive: 79.4 µM [inhibitor, single point]"}, {"smiles": "COc1ccc(N2CCN(c3nc4c(c(=O)n(C)c(=O)n4C)n3Cc3ccccc3)CC2)cc1", "Potency": "active: 44.7 µM"}, {"smiles": "Cc1ccc(C(=O)O)cc1NC(=O)Nc1ccc2c(c1)OCO2", "Potency": "inconclusive: 89.1 µM [inhibitor, single point]"}, {"smiles": "Oc1ccc(N2CCN(c3ccnc4cc(Cl)ccc34)CC2)cc1", "Potency": "inconclusive: 63.1 µM [inhibitor, partial curve, poor fit]"}, {"smiles": "COc1ccc(NC(=O)c2cnc(SC)n2-c2ccc(F)cc2)c(OC)c1", "Potency": "inconclusive: 39.8 µM [inhibitor, partial curve]"}, {"smiles": "Cc1ccc(S(=O)(=O)c2nc(-c3ccccc3)oc2N2CCC(C(N)=O)CC2)cc1", "Potency": "inconclusive: 79.4 µM [inhibitor, partial curve]"}, {"smiles": "Cc1ccc(CN2CCSCC2)cc1", "Potency": "inconclusive: 89.1 µM [inhibitor, single point]"}, {"smiles": "O=C(c1ccccc1)N1CCN(c2ccc([N+](=O)[O-])c(NCc3ccco3)c2)CC1", "Potency": "inconclusive: 35.5 µM [inhibitor, partial curve]"}, {"smiles": "Cc1cccc(C)c1-n1c(C)cc(/C=C2\\NC(=O)NC2=O)c1C", "Potency": "active: 39.8 µM"}, {"smiles": "Cc1c(NC(=S)N/N=C/c2cc([N+](=O)[O-])ccc2O)c(=O)n(-c2ccccc2)n1C", "Potency": "active: 5.62 µM"}, {"smiles": "O=C(Nc1nnc(-c2ccc(Br)cc2)o1)C1=COCCO1", "Potency": "inconclusive: 89.1 µM [inhibitor, single point]"}, {"smiles": "CC(C)n1c(=S)[nH]c2c1c(=O)[nH]c(=O)n2C", "Potency": "inconclusive: 89.1 µM [inhibitor, single point]"}, {"smiles": "Cc1ccc(-c2nnn(CC(=O)N(Cc3ccco3)C(C(=O)NC(C)(C)C)c3ccc(C)o3)n2)o1", "note": "(centres undefined)", "activity change, negative = inhibition": "inactive: -26.8%"}, {"smiles": "CCC(=O)Nc1nonc1-c1nc2ccccc2n1N(C(=O)CC)C(=O)CC", "Potency": "inconclusive: 89.1 µM [inhibitor, single point]"}, {"smiles": "C/C(=C/CCC(C)C1CCC2(C)C3CCC4C(C)(C)C(=O)CCC4(C)C3=CCC12C)C(=O)O", "note": "(centres undefined)", "Potency": "active: 50.1 µM"}, {"smiles": "Cc1ccc(C(=O)NCc2ccccn2)cc1NC1=NC2CS(=O)(=O)CC2S1", "note": "(centres undefined)", "activity change, negative = inhibition": "inactive: -18.5%"}, {"smiles": "CCc1nnc(NS(=O)(=O)c2ccc(NC(=S)NC(=O)c3ccc(Br)cc3)cc2)s1", "Potency": "inconclusive: 50.1 µM [inhibitor, partial curve]"}, {"smiles": "COc1ccccc1CNC(=O)c1cc2c(s1)CS(=O)(=O)C2", "Potency": "inconclusive: 89.1 µM [inhibitor, single point]"}, {"smiles": "Cc1ccccc1C(=O)Nc1nnc(SCc2cc(=O)c3c(C)ccc(C)c3[nH]2)s1", "Potency": "active: 56.2 µM"}, {"smiles": "CCOC(=O)c1ccc(N2C(=O)c3n[nH]c(C)c3C2c2ccc(OC)cc2)cc1", "note": "(centres undefined)", "Potency": "inconclusive: 89.1 µM [inhibitor, single point]"}, {"smiles": "COCCOC(=O)C(C#N)c1nc2ccccc2nc1N1CCN(Cc2ccccc2)CC1", "note": "(centres undefined)", "Potency": "inconclusive: 39.8 µM [inhibitor, partial curve]"}, {"smiles": "COc1cc(C(=O)OCC(=O)N(C)C)cc(NC(=O)c2ccco2)c1OC", "Potency": "inconclusive: 100 µM [inhibitor, single point]"}, {"smiles": "Cn1c(C(=O)NCc2ccc3c(c2)OCO3)cc2sccc21", "Potency": "inconclusive: 50.1 µM [inhibitor, partial curve]"}, {"smiles": "CCOC(=O)c1c(C)[nH]c(C)c1C(=O)COc1ccc(NC(=O)c2ccco2)cc1", "Potency": "inconclusive: 89.1 µM [inhibitor, single point]"}, {"smiles": "COc1nccnc1NS(=O)(=O)c1ccc(NC(=S)NC(=O)c2ccccc2)cc1", "Potency": "inconclusive: 89.1 µM [inhibitor, single point]"}, {"smiles": "CCNC(=S)N/N=C(\\C)c1cccc([N+](=O)[O-])c1", "Potency": "inconclusive: 79.4 µM [inhibitor, single point]"}, {"smiles": "Nn1c(-c2ccco2)n[nH]c1=S", "Potency": "active: 50.1 µM"}, {"smiles": "COc1cc(C(=S)N2CCOCC2)ccc1OS(=O)(=O)c1ccccc1[N+](=O)[O-]", "activity change, negative = inhibition": "inactive: -6.27%"}, {"smiles": "O=C(Nc1sc2c(c1C(=O)NCc1ccccc1)CCCC2)c1cc(=O)c2cc(Cl)ccc2o1", "activity change, negative = inhibition": "inactive: -1.27%"}, {"smiles": "COc1cccc(C2c3[nH]c4ccccc4c3C[C@H]3C(=O)N(C4CCN(Cc5ccccc5)CC4)CC(=O)N23)c1", "note": "(some centres undefined)", "Potency": "inconclusive: 50.1 µM [inhibitor, partial curve]"}, {"smiles": "O=C(Nc1nc2nc(-c3ccccc3)cc(=O)n2[nH]1)c1ccc(F)cc1", "Potency": "active: 79.4 µM"}, {"smiles": "CC(NCC(=O)Nc1ccccc1C(=O)NC1CC1)c1ccc(F)cc1F", "note": "(centres undefined)", "activity change, negative = inhibition": "inactive: -14.7%"}, {"smiles": "COc1ccc(C(=O)N/C(=C\\c2cccs2)C(=O)N2CCN(C)CC2)cc1OC", "activity change, negative = inhibition": "inactive: -8.51%"}, {"smiles": "CC[n+]1ccc(C)c2cc(S(=O)C(F)(F)F)ccc21", "note": "(centres undefined)", "activity change, negative = inhibition": "inactive: -5.26%"}, {"smiles": "O=C(N/N=C/c1ccccc1O)c1cccc(C(F)(F)F)c1", "Potency": "inconclusive: 89.1 µM [inhibitor, single point]"}, {"smiles": "CN1C=CC=C/C1=C1/SC(=S)N(Cc2ccccc2)C1=O", "Potency": "active: 39.8 µM"}, {"smiles": "C/C(=N\\NC(=O)c1c[nH]c2ccccc12)c1ccccn1", "Potency": "active: 10 µM"}, {"smiles": "CCOc1ccc(S(=O)(=O)Nc2ccc3c(c2)c(C(C)=O)c(C)n3S(=O)(=O)c2ccc(OCC)cc2)cc1", "activity change, negative = inhibition": "inactive: -8.82%"}, {"smiles": "Cc1cc(C)c(NC(=O)Cn2c(=O)n(CCC(=O)NCc3ccc4c(c3)OCO4)c(=O)c3ccccc32)c(C)c1", "activity change, negative = inhibition": "inactive: -3.36%"}, {"smiles": "COc1ccc(-n2c(Cc3cccn3C)nnc2SCC(=O)Nc2cccc(F)c2)cc1", "Potency": "inconclusive: 70.8 µM [inhibitor, single point]"}, {"smiles": "CCCOc1ccc(-c2nn(-c3ccccc3)cc2/C=C2\\SC(=S)N(C3CCS(=O)(=O)C3)C2=O)cc1", "note": "(centres undefined)", "activity change, negative = inhibition": "inactive: -9.59%"}, {"smiles": "COc1cc(C(=O)NC(=S)NCc2ccco2)cc(OC)c1OC", "activity change, negative = inhibition": "inactive: -25%"}, {"smiles": "Cc1ccc2c(c1)c(N=Nc1cccc(C(=O)O)c1)c(O)n2C", "Potency": "inconclusive: 39.8 µM [inhibitor, full curve]"}, {"smiles": "CCOC(=O)c1ccccc1NC1(c2ccc(OC)cc2)C(=O)c2ccccc2C1=O", "activity change, negative = inhibition": "inactive: -27.5% [at 57.1 µM]"}, {"smiles": "c1ccc(-c2cc(-c3nc4ccccc4[nH]3)c3ccccc3n2)cc1", "activity change, negative = inhibition": "inactive: -28.4%"}, {"smiles": "COc1cc(CN2CCN(Cc3ccco3)CC2)cc(OC)c1", "Potency": "active: 25.1 µM"}, {"smiles": "COc1cccc(C(=O)Nc2nnc(-c3cccs3)s2)c1", "activity change, negative = inhibition": "inactive: -3.98%"}, {"smiles": "NS(=O)(=O)c1ccc(Nc2ccccc2)c([N+](=O)[O-])c1", "Potency": "inconclusive: 39.8 µM [inhibitor, partial curve]"}, {"smiles": "Cc1nc2nc(C)c(CCC(=O)NCCCN3CCN(c4cccc(Cl)c4)CC3)c(C)n2n1", "Potency": "inconclusive: 79.4 µM [inhibitor, single point]"}, {"smiles": "CCn1cc2nc(SCC(=O)Nc3ccc(OC)c(OC)c3)n(Cc3ccc(OC)cc3)c(=O)c2n1", "Potency": "inconclusive: 44.7 µM [inhibitor, partial curve]"}, {"smiles": "CN(Cc1cccc([N+](=O)[O-])c1)Cc1cccc2ccccc12", "activity change, negative = inhibition": "inactive: -36.1%"}, {"smiles": "S=C(NC1CCCCC1)c1ccc2c(c1)OCO2", "activity change, negative = inhibition": "inactive: -12.4%"}, {"smiles": "N#Cc1c(NC(=O)/C=C/C(=O)O)sc2c1CCN(Cc1ccccc1)C2", "Potency": "active: 50.1 µM"}, {"smiles": "O=c1c(F)cn(C2CCCO2)c(=O)n1Cc1c(Cl)cccc1Cl", "note": "(centres undefined)", "activity change, negative = inhibition": "inactive: -1.14%"}, {"smiles": "O=C(Nc1ccc(C(F)(F)F)cc1)C1CC(=O)N(c2ccc3c(c2)OCCO3)C1", "note": "(centres undefined)", "Potency": "inconclusive: 89.1 µM [inhibitor, single point]"}, {"smiles": "CC(N)=Nc1ccc([N+](=O)[O-])cc1", "activity change, negative = inhibition": "inactive: 0.116%"}, {"smiles": "CC(C)c1ccc(NS(=O)(=O)c2ccc3[nH]c(=O)ccc3c2)cc1", "Potency": "inconclusive: 31.6 µM [inhibitor, single point]"}, {"smiles": "C#CCn1cc(/C=N/NC(=O)COc2cccc3cccnc23)c2ccccc21", "Potency": "inconclusive: 89.1 µM [inhibitor, single point]"}, {"smiles": "CN(C)S(=O)(=O)c1cccc(C(=O)Nc2cc3c(cc2C(=O)O)OCCCO3)c1", "activity change, negative = inhibition": "inactive: 4.27%"}, {"smiles": "O=C(CCN1CCN(CCO)CC1)Nc1ccc(Br)cc1", "Potency": "inactive"}, {"smiles": "O=c1c(-n2cncn2)c[nH]n1-c1cccc(Cl)n1", "Potency": "active: 50.1 µM"}, {"smiles": "COc1ccc(NC(=O)CSc2nnnn2-c2ccccc2F)cc1", "activity change, negative = inhibition": "inactive: -8.54%"}, {"smiles": "O=C(CNC(=O)c1ccc(S(=O)(=O)N2CCCCC2)cc1)N/N=C/c1ccco1", "activity change, negative = inhibition": "inactive: -20.7%"}, {"smiles": "Cc1ccc(NC(=O)Cn2nnc(C(=O)NCCc3ccccc3)c2N)cc1", "activity change, negative = inhibition": "inactive: -30.4%"}, {"smiles": "COc1ccc(NC(=O)c2cc(-c3ccccn3)nc3ccccc23)cc1S(=O)(=O)N(C)C", "Potency": "inconclusive: 79.4 µM [inhibitor, single point]"}, {"smiles": "CCC1NC(=S)N(C2CCCCC2)C1=O", "note": "(centres undefined)", "activity change, negative = inhibition": "inactive: 3.92%"}, {"smiles": "COc1cc(OC)cc(C(=O)NC(=S)Nc2nnn(C)n2)c1", "Potency": "inconclusive: 50.1 µM [inhibitor, partial curve]"}, {"smiles": "Cc1ccc(CNC(=O)Nc2ccc(C)cc2)cc1", "Potency": "inconclusive: 89.1 µM [inhibitor, single point]"}, {"smiles": "Cc1[nH]c2ccccc2c1CCNC(=O)c1c(N)no[n+]1[O-]", "Potency": "inconclusive: 79.4 µM [inhibitor, single point]"}, {"smiles": "Cc1ccc(S(=O)(=O)c2cn(Cc3ccccc3)c3cc(N4CCCC4)c(F)cc3c2=O)cc1", "activity change, negative = inhibition": "inactive: 3.44%"}, {"smiles": "CC1CCN(c2oc(Cc3cccc4ccccc34)nc2C#N)CC1", "Potency": "inconclusive: 10 µM [inhibitor, full curve]"}, {"smiles": "COC(=O)c1ccc(CS(=O)(=O)c2ccc(C)cc2)o1", "activity change, negative = inhibition": "inactive: -17.2%"}, {"smiles": "O=C(c1ccc(Cl)cc1)N1C2C=CC(C2)C1(C(F)(F)F)C(F)(F)F", "note": "(centres undefined)", "activity change, negative = inhibition": "inactive: -3.52%"}]}]}
